# In all, about 310,000 compounds went through this assay and about 2,200 (0.71%) showed an effect of 50% or more. The effect is printed as a negative number. This is one part of the list.
# Target: human ether-à-go-go-related gene (hERG) potassium channel (human, UniProt Q12809)
# Assay: primary screen, population patch clamp on CHO cells stably expressing hERG
# human ether-à-go-go-related gene (hERG) potassium channel, sequence (Q12809 whole entry, looked up): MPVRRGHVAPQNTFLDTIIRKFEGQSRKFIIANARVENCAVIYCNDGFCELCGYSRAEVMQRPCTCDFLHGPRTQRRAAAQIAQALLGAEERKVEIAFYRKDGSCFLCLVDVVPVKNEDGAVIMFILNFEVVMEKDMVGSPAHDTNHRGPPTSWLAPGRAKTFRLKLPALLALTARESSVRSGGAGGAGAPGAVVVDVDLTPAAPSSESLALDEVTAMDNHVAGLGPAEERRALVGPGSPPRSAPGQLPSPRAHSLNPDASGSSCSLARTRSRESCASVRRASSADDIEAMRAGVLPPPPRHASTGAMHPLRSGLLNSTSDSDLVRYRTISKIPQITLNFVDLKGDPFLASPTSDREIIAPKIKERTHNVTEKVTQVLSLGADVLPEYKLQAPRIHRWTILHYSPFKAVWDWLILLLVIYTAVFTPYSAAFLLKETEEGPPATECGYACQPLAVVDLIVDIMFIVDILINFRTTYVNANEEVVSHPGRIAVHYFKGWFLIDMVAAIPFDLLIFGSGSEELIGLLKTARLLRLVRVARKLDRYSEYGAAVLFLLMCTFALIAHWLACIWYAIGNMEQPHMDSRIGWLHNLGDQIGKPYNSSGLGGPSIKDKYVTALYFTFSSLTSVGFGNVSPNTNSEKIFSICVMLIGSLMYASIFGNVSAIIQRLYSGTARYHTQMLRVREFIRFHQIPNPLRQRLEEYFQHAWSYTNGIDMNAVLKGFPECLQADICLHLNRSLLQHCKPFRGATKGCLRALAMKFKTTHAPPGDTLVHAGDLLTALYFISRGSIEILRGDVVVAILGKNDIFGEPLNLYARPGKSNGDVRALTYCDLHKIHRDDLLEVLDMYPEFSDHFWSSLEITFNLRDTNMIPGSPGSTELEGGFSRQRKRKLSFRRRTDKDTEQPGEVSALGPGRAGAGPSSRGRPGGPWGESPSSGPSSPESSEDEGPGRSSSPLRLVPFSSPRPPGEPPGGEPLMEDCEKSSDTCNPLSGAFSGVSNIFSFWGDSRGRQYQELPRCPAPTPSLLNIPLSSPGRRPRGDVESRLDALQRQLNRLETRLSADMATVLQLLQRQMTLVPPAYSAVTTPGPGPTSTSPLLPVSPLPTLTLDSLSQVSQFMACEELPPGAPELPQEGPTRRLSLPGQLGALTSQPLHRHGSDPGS
row,SMILES,"hERG current change (%, negative = inhibition) at 1uM"
1,Clc1ccc(OCCOCCNCc2ccccc2)cc1Cl.O=C(O)C(=O)O,14.9%
2,CC(=O)c1ccc(S(=O)(=O)NCc2ccc(C(=O)N(C)CC(=O)Nc3cccc(F)c3)cc2)cc1,13.9%
3,O=C(N/N=C\c1cccc(Cl)c1)c1n[nH]c2c1CCCC2,11%
4,O=C(COC(=O)c1cccc(NC(=O)c2ccco2)c1)c1ccc(Br)cc1,2.74%
5,O=C(C1CCC(CNS(=O)(=O)c2ccc(F)cc2)CC1)N1CCOCC1 (stereo not drawn),9.02%
6,O=C(CCS(=O)(=O)Cc1ccccc1)N1CCN(c2ccc([N+](=O)[O-])cc2)CC1,-81%
7,O=C(O)c1c2c(nc3ccc(S(=O)(=O)N4CCC(C(=O)NC5CCCC5)CC4)cc13)CCCCC2,7.31%
8,O=C(COc1cccnc1[N+](=O)[O-])c1c[nH]c2ccccc12,11%
9,CCc1ccc2[nH]cc(C(=O)N3CCCCCC3)c(=O)c2c1,10.1%
10,Cc1ccc(-c2csc(N3CCC(C(N)=O)(N4CCCCC4)CC3)n2)cc1,6.23%
11,COc1cccc(N2CCN(C(=O)c3ccc(=O)oc3)CC2C)c1 (stereo not drawn),-31%
12,CC(C)(C)n1nnnc1C(c1cccnc1)N1CCN(C2CCCCC2)CC1 (stereo not drawn),3.91%
13,COc1ccc(S(=O)(=O)NC(C)C(=O)NCCN2CCOCC2)cc1Cl (stereo not drawn),13%
14,O=C(Nc1cccc(Cl)c1)c1cccnn1,20.6%
15,Cc1cc(O)cc(O)c1C(=O)Cc1cscn1,6.33%
16,COc1ccc(N(CC(=O)NC(C)(C)C)S(=O)(=O)c2ccccc2)cc1OC,9.89%
17,O=C(Nc1nccs1)NC1CCCCC1,-16.2%
18,Fc1ccccc1NC(=S)N1CCCCC1,9.42%
19,COc1ccc(C(CNC(=O)c2cccc(S(=O)(=O)N3CCOCC3)c2)N2CCCC2)cc1 (stereo not drawn),-4.47%
20,CCCn1nc(C(=O)Nc2ccc(S(=O)(=O)Nc3nccs3)cc2)c2ccccc2c1=O,12.6%
21,CCN(CC)S(=O)(=O)c1cccc(C(=O)OC2CC(C)OC2=O)c1 (stereo not drawn),17.5%
22,Cc1ccc(NC(=O)CN2CCc3ccccc3C2)cc1S(=O)(=O)N1CCOCC1,17.2%

row,SMILES,"hERG current change (%, negative = inhibition) at 1uM"
1,COc1ccccc1/C=C(/C(=O)OCC(=O)Nc1cc(C)ccc1C)c1ccccc1,8.44%
2,COc1ccc(-n2nc(C(=O)NCC(=O)NCCc3ccc(OC)c(OC)c3)c3ccccc3c2=O)cc1Cl,16.3%
3,Cc1cc(C)nc(NC(=O)NS(=O)(=O)Nc2ccc(Br)cn2)n1,13.7%
4,Cc1ccc2nc(N3CCN(C(=O)c4ccc(F)cc4)CC3)c(C#N)cc2c1,-56.8%
5,COCCNC(=O)C(=O)NCC1OCCCN1S(=O)(=O)c1cccs1 (stereo not drawn),3.14%
6,Cc1cccn2c(CN(C)C3CCOC3)c(C(=O)N3CCCCC3)nc12 (stereo not drawn),27.4%
7,Cc1ccccc1CNC(=O)C(=O)NCCC1CCCCN1S(=O)(=O)c1cccs1 (stereo not drawn),9.93%
8,COc1ccc(NC(=O)CCn2c(=O)c3cccn3c3ccccc32)cc1,9.21%
9,Cn1c(=O)c2c(nc(N3CCNCC3)n2Cc2ccccc2Cl)n(C)c1=O,16.8%
10,CCOC(=O)CSc1n[nH]c(-c2ccco2)n1,11.6%
11,COc1cccc(C(=O)Nc2ccc(NC(C)=O)cn2)c1,10.4%
12,CN=C(Nc1ccccc1OC)SC1CC(=O)N(c2ccc(C(=O)OC)cc2)C1=O (stereo not drawn),-5.59%
13,Cc1nn(Cc2ccccc2)c(C)c1NC(=O)c1cc(-c2cccs2)on1,-2.3%
14,C/C(=N\OCC(=O)Nn1c(C)nc2ccccc2c1=O)c1ccccc1,7.36%
15,Cc1ccc(/C=N/N2CCN(Cc3ccccc3)CC2)s1,11.7%
16,NNc1ccc(Cc2ccc(Cl)cc2Cl)nn1,7.64%
17,CN1CCC(c2c[nH]c3ccccc23)C1 (stereo not drawn),12%
18,COc1ccc(NC(=O)NCc2ccccc2F)cc1OC,10.2%
19,O=C(N/N=C/C1CC=CCC1)c1cc(-c2cccnc2)nc2ccccc12 (stereo not drawn),-0.786%
20,COC(=O)c1ccc(NC(=O)c2cc(-c3ccncc3)nc3ccccc23)cc1,17.6%
21,CCN1C(=O)[C@H]2[C@@H](c3ccc(-c4cc(C(C)=O)cs4)cc3)N3CCCC[C@@]3(C(=O)OC)[C@H]2C1=O.O=C(O)C(F)(F)F,6.02%
22,CCC[C@@H]1CCCO[C@@](C(=O)NCc2cc(C)n(C)n2)(C(F)(F)F)C1,10.1%

row,SMILES,"hERG current change (%, negative = inhibition) at 1uM"
1,Cn1c(-c2ccsc2)c(-c2cccs2)c2cc(Br)ccc21,11.7%
2,C=CCc1c(C)nc(SC(C)C)[nH]c1=O,3.21%
3,Cc1c(C(=O)O)oc2c1ccc1ccccc12,22.3%
4,C=CCn1c(=NC(=O)c2ccc(S(=O)(=O)N3CCc4ccccc4C3)cc2)sc2cc(S(N)(=O)=O)ccc21,-7.13%
5,COc1cccc(NC(=O)c2ccccc2)c1,8.87%
6,CCOC(=O)C(=CNc1cc(OC)ccc1-n1cccc1)C(=O)OCC,-6.49%
7,COc1ccc(N2CCN(C(=O)c3cc(-c4cccs4)nc4ccccc34)CC2)cc1,14.1%
8,CN(C)CCCN(C(=O)COc1ccc(Cl)cc1)c1nc2cc3c(cc2s1)OCO3.Cl,-0.552%
9,Nn1cnnc1SCC(=O)Nc1ccc2c(c1)OCCO2,5.22%
10,CC(=O)c1ccc(OCc2cc(C(=O)NCCN3CCCC(O)C3)no2)cc1 (stereo not drawn),7.33%
11,O=C(NC(=S)N(Cc1ccccc1)c1ccccn1)C1CC1,8.54%
12,Cc1ccc(S(=O)(=O)Nc2ccc(-c3csc(-c4ccccc4)n3)cc2)cc1,-0.991%
13,O=C(CSCCc1ccccn1)Nc1cccnc1Cl,7.69%
14,C[C@H](NC(=O)c1ncn(Cc2ccccc2)c1C(=O)N[C@@H](C)c1ccccc1)c1ccccc1,10.3%
15,CCCCCCCC(=O)NC(Nc1ccccc1OC)C(Cl)(Cl)Cl (stereo not drawn),12.4%
16,COc1ccc(C(=O)N(Cc2ccccc2)c2ccc(C)cc2)cc1S(=O)(=O)N1CCOCC1,-6.17%
17,CN(C)S(=O)(=O)c1cccc(NC(=S)NCc2ccc3c(c2)OCO3)c1,10.6%
18,Cc1ccccc1N1CCN(S(=O)(=O)c2nnc(NC(=O)c3ccc(F)cc3)s2)CC1,24.9%
19,O=CNCCc1nc2ccccc2n1CCc1ccccc1,16.2%
20,COc1ccc(-c2nc3nc(C)c(Cc4ccccc4)c(=O)n3[nH]2)cc1,3.12%
21,COc1ccc(-c2nnc3n2CCCCC3)cc1,10.5%
22,O=C1CC(Cc2ccccc2)C(=O)N1c1ccccn1 (stereo not drawn),14.9%

row,SMILES,"hERG current change (%, negative = inhibition) at 1uM"
1,CSc1nsc(SCC(=O)Nc2ccc(NC(C)=O)cc2)n1,11.7%
2,CCn1c(=N)c(S(=O)(=O)c2ccc(C)cc2)cc2c(=O)n3ccccc3nc21,-6.55%
3,Cc1ccc(S(=O)(=O)N2CCCC2c2cccnc2)cc1 (stereo not drawn),0.107%
4,Cc1ccccc1NS(=O)(=O)c1ccc(OCC(=O)NCc2cccnc2)cc1,4.02%
5,COC(=O)c1cccc(C23CC4(C2)[C@H](CN(C)[C@@H]4c2ccccc2)C3c2ccc(C(F)(F)F)cc2)c1 (stereo partly drawn),14.4%
6,CCCN1C2CCCC1CC(NC(=O)c1ccc(OC)cc1)C2 (stereo not drawn),1.04%
7,CCOC(=O)c1c(C)[nH]c(C)c1S(=O)(=O)NCC1CCN(Cc2cccc(F)c2)CC1,14.2%
8,COc1ccc(CNC(=O)C2CCC(CNc3c(N4CCOCC4)c(=O)c3=O)CC2)cc1 (stereo not drawn),8.97%
9,Cc1nc2sc(C(c3ccccc3)N3CCN(C(=O)c4ccco4)CC3)c(O)n2n1 (stereo not drawn),13%
10,NC(=O)CC(NC(=O)Cc1cccc2ccccc12)c1ccc(NCC2CC2)c([N+](=O)[O-])c1 (stereo not drawn),5.37%
11,COc1ccccc1NC(=O)C1=C(C)Nc2ncnn2C1c1ccccc1C (stereo not drawn),5.96%
12,O=C(CNC(=O)Cc1ccccc1)NCC(=O)OCC(=O)c1ccc(F)cc1,4.62%
13,Cc1ccc(S(=O)(=O)NNC(=S)Nc2c(Cl)cccc2Cl)cc1,15.8%
14,COc1ccc(C(=O)NC2CCCCC2)cc1S(=O)(=O)N1CCOCC1,6.58%
15,COc1ccc(C(=O)NNC2=NCCCCC2)cc1,-2.19%
16,Cc1sc2ncnc(OCc3nnc(-c4cccs4)o3)c2c1C,9.51%
17,O=C(NCC(c1cccs1)N1CCOCC1)c1ccco1 (stereo not drawn),11.7%
18,Cc1ccc(-n2nnnc2SCC(=O)Nc2sccc2C#N)cc1,15.5%
19,Cc1ccccc1NC(=S)NC1(C)CCS(=O)(=O)C1 (stereo not drawn),11.9%
20,Cc1ccc(C)c(S(=O)(=O)N2CCN(C(=O)CCC(=O)NCc3ccc(Cl)cc3)CC2)c1,1.26%
21,C#CCOCCOCCOCCNc1nc(N2CCN(C(=O)[C@H](C(C)C)n3cc(CCO)nn3)CC2)nc(N2CCN(C(=O)[C@H]([C@@H](C)CC)n3cc(CCC[NH+]=C(N)N)nn3)CC2)n1.[Cl-],14.3%

# From paper PMC4336329 (PLoS ONE, 2015)
